In patent US20150209319A1, “COMPOSITIONS COMPRISING AN ANTIBODY AND CAMOSTAT MESYLATE (CM)” (Glaxo Group Limited, priority 2012, published 2015):

Tests used:
IL-6 = test: ELISA binding of intact mAb from SIF incubations to coated ligand IL-6
Method: (§1) Monoclonal antibodies were incubated in SIF in the presence and absence of CM as in Examples 1 and 2, and ability to bind to their ligand was assessed using an ELISA. In brief, Nunc Maxisorp™ plates were coated with ligand (in this Example, IL-6 and IL-23) overnight. Plates were washed and blocked with bovine serum albumin. SIF samples were diluted and added to the plate, along with a standard curve of mAb, then incubated at room temperature to allow binding. Plates were washed and a peroxidase-conjugated anti-human Fc region antibody was added to the wells. After incubation, the plate was washed and incubated with OPD substrate to obtain a colorimetric signal. The reaction was stopped with sulphuric acid and absorbance read at 490 nm.

IL-23 = test: ELISA binding of intact mAb from SIF incubations to coated ligand IL-23
Method: as §1

[1] = SIF alone, by 1 hour, relative to 0 h time-point = 100%

B1: anti-IL6: an anti-IL-6 antibody (SEQ ID NOs: 1 and 2) (antibody)
heavy: QVQLQESGPGLVKPSETLSLTCTVSGFSLSTSGMGVGWIRQPPGKGLEWIGHIWWDDDKYYNPSLKSRVTISVDTSKNQFSLKLSSVTAADTAVYYCARSYDDYLYYALDYWGQGTLVTVSS[gap - human IgG1 constant region with L235A G237A (EU numbers)]
light: DIQMTQSPSSLSASVGDRVTITCRASQSISDYLHWYQQKPGKAPKLLIKSVSQSISGVPSRFSGSGSGTDFTLTISSLQPEDFATYYCQNGHSFPLTFGQGTKLEIKRTVAAPSVFIFPPSDEQLKSGTASVVCLLNNFYPREAKVQWKVDNALQSGNSQESVTEQDSKDSTYSLSSTLTLSKADYEKHKVYACEVTHQGLSSPVTKSFNRGEC
modifications: Amino acid sequence identified using molecular biology techniques.
**Q.** What does the source list for B1?
**A.** intact bound mAb lost (anti-IL6 binding ELISA) (IL-6; [1]): over 90%; bound intact mAb detectable (anti-IL6 binding ELISA) (IL-6; SIF with CM, at 21 h): substantial amounts were still detectable

B2: anti-IL23: an anti-IL-23 antibody (SEQ ID NOs: 3 and 4) (antibody)
heavy: QVQLVQSGAEVKKPGSSVKVSCKASGYTFTSYGITWVRQAPGQGLEWMGENYPRSGNIYYNEKFKGRVTITADKSTSTAYMELSSLRSEDTAVYYCARAEFISTVVAPYYYALDYWGQGTLVTVSS[gap - human IgG1 constant region]
light: DIVMTQSPDSLAVSLGERATINCKASKKVTIFGSTSALHWYQQKPGQPPKLIYNLAKPESGVPDRFSGSGSGTDFTLTISSLQAEDVAVYYCLQNKEVPYTFGGGTKVEIKRTVAAPSVFIFPPSDEQLKSGTASVVCLLNNFYPREAKVQWKVDNALQSGNSQESVTEQDSKDSTYSLSSTLTLSKADYEKHKVYACEVTHQGLSSPVTKSFNRGEC
modifications: Amino acid sequence identified using molecular biology techniques.
**Q.** B2 was tested. Which “intact bound mAb lost (anti-IL23 binding ELISA)” value (IL-23; [1]) did it give?
**A.** over 90%

**Q.** What about the “bound intact mAb detectable (anti-IL23 binding ELISA)” value (IL-23; SIF with CM, at 21 h) of the same molecule?
**A.** substantial amounts were still detectable
